Data reported in PubChem BioAssay AID887 (National Center for Advancing Translational Sciences (NCATS), 2007).
Hit rate of the full screen: of about 74,000 compounds, about 1,100 (1.5%) were called active. Inconclusive means that the source gave no clear call. Such entries were picked first, then a sample of the others. Calls come from the whole dose curve; as a rule, active = well fitted inhibition curve with a large enough effect; inconclusive = small, poorly fitted or top-dose-only effect; inactive = no such curve, though single readings can be large or run the other way. Potencies of inconclusive entries are left out as doubtful fits.
% is set by controls: 0 for no effect and ±100 for the full control effect; potency is the fitted concentration of half-maximal effect; tags give direction and shape of the fitted curve.
Note: nearly all actives have a fitted effect of over 55% in size.

These molecules were tested against Polyunsaturated fatty acid lipoxygenase ALOX15 (Homo sapiens) (UniProt P16050) (assay: qHTS Assay for Inhibitors of 15-hLO (15-human lipoxygenase)). Settings: purified 15hLO-1, xylenol orange hydroperoxide absorbance; activity change, negative = inhibition: at 57.1 µM (top of the series) unless noted.
UniProt P16050, sequence (P16050 whole entry, looked up): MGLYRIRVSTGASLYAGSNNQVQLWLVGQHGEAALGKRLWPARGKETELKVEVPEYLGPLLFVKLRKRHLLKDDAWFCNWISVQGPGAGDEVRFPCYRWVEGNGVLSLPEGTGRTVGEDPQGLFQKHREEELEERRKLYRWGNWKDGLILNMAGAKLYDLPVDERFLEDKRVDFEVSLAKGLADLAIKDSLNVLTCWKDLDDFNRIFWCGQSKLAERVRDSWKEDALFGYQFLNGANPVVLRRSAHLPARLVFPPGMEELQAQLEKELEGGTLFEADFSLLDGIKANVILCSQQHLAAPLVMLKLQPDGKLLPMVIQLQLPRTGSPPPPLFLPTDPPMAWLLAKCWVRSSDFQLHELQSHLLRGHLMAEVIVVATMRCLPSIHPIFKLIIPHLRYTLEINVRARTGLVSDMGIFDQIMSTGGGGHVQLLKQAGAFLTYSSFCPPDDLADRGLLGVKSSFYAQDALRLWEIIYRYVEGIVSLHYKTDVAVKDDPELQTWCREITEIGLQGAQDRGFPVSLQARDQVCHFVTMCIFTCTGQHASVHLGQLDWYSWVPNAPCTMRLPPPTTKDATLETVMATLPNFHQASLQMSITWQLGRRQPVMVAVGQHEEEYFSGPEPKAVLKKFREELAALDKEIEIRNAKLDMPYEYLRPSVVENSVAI
Procedure, shortened: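 Purified human 15hLO-1 (40 nM) in 25 mM Hepes pH 7.5, 0.01% Triton X-100, preincubated 15 min RT with compound, then 50 uM arachidonic acid for 6 min. Hydroperoxide read by ferrous/xylenol orange, 30 min; 573/405 nm absorbance ratio gave progress.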
For `COc1ccc(C(=O)N2CCC[C@@]3(CCN(Cc4ccncc4)C3)C2)cc1`, the “activity change, negative = inhibition” value was inactive: -12.8%. For `O=C(NC1CCCCC1)N(Cc1ccccc1)Cc1ccco1`, the “activity change, negative = inhibition” value was inactive: 0.293%. `O=C(CSc1oc(-c2ccco2)nc1S(=O)(=O)c1ccc(F)cc1)NCC1CCCO1` (stereo not drawn) was tested, and the Potency was inconclusive [inhibitor, single point]. `CCCCCCN(C(=O)CCCCCN1C(=O)NC(c2ccc(Cl)cc2)C(C(=O)OCc2ccccc2)=C1C)C(C(=O)NCCCC)c1ccc(OCC(=O)OC)c(C(=O)OC)c1` (stereo not drawn) was tested, and the Potency was inconclusive [inhibitor, single point]. `COc1ccccc1NC(=O)N(Cc1ccccc1)c1ccccn1` was tested, and the Potency was inconclusive [inhibitor, single point]. In the case of `O=C(CCn1nc(-c2ccc(Cl)cc2)ccc1=O)NCCCN1CCCCCC1`, the Potency is reported as inconclusive [inhibitor, partial curve]. `CC1(C)OCC(CSC2=C(SCC3COC(C)(C)O3)C(=O)c3ncccc3C2=O)O1` (stereo not drawn) was tested, and the Potency was inconclusive [inhibitor, full curve, poor fit]. `Cc1ccc(-c2noc(CN(C(=O)c3cccc(Br)c3)C(C)C)n2)cc1` was tested, and the Potency was inconclusive [inhibitor, single point]. `CN(Cc1ccco1)c1nc(-c2cccnc2)nc2ccccc12` was tested, and the “activity change, negative = inhibition” value was inactive: 2.02%. For `CC1CCC2C(=O)N3C(CCC(C)[C@@H]3c3ccc(-c4ccco4)cc3)C(=O)N2C1c1cccc(N2CCCC2=O)c1` (stereo partly drawn), the Potency was active: 5.01 µM. In the case of `CCc1ccc2[nH]c(=O)c(CN(Cc3ccccc3OC)Cc3nnnn3Cc3ccco3)cc2c1`, the Potency is reported as inconclusive [inhibitor, partial curve]. For `Cc1nc(NCc2ccccc2)c2nc(-c3ccccc3)n(CCCN3CCOCC3)c2n1`, the Potency was inconclusive [inhibitor, single point]. In the case of `O=C(CCc1n[nH]c(=O)[nH]c1=O)N1CCOCC1`, the Potency is reported as inconclusive [inhibitor, single point]. In the case of `COc1ccc(Oc2ncc3nc(C)c(=O)n(-c4ccccc4)c3n2)cc1`, the “activity change, negative = inhibition” value is reported as inactive: -0.0242%. For `O=c1c2ccccc2nc(SCc2cn3ccsc3n2)n1-c1ccc(F)cc1`, the “activity change, negative = inhibition” value was inactive: -4.58%. For `COC(=O)c1c(C)n(-c2ccccc2)c2ccc(O)cc12`, the Potency was inconclusive [inhibitor, partial curve]. In the case of `CCCCn1c(SCc2nnc(-c3ccccc3)o2)nc2c1c(=O)n(C)c(=O)n2C`, the “activity change, negative = inhibition” value is reported as inactive: 20.1%. In the case of `Cn1c(=O)c2c(nc(CN3CCc4ccccc4C3)n2Cc2cccc(Cl)c2)n(C)c1=O`, the Potency is reported as inconclusive [inhibitor, partial curve, poor fit].
